From article PMC10987122 come the findings set out here.

Sequences of proteins named here, by UniProt entry; tags and fusion partners are left off.
UniProt P55884: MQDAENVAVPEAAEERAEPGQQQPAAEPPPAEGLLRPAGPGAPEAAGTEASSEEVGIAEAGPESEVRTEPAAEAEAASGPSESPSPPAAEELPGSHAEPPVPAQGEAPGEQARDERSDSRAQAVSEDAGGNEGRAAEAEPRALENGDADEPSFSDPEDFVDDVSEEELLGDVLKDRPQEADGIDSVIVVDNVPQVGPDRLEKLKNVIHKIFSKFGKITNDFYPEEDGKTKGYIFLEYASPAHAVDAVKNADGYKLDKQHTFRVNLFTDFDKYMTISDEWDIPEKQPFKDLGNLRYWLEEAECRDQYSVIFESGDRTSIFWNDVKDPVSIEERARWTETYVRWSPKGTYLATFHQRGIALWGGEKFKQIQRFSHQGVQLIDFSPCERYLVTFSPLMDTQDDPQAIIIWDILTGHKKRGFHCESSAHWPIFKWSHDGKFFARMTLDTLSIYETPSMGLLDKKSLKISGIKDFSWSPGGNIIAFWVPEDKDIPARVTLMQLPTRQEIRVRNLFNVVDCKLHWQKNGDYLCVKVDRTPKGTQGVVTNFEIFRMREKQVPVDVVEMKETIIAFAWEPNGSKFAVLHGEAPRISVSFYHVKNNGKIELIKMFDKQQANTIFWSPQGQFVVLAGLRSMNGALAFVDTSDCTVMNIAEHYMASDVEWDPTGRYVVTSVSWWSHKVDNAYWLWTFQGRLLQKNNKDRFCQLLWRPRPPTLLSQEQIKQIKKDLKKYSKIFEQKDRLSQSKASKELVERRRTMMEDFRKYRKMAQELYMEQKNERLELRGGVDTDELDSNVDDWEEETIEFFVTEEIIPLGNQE
UniProt Q99613: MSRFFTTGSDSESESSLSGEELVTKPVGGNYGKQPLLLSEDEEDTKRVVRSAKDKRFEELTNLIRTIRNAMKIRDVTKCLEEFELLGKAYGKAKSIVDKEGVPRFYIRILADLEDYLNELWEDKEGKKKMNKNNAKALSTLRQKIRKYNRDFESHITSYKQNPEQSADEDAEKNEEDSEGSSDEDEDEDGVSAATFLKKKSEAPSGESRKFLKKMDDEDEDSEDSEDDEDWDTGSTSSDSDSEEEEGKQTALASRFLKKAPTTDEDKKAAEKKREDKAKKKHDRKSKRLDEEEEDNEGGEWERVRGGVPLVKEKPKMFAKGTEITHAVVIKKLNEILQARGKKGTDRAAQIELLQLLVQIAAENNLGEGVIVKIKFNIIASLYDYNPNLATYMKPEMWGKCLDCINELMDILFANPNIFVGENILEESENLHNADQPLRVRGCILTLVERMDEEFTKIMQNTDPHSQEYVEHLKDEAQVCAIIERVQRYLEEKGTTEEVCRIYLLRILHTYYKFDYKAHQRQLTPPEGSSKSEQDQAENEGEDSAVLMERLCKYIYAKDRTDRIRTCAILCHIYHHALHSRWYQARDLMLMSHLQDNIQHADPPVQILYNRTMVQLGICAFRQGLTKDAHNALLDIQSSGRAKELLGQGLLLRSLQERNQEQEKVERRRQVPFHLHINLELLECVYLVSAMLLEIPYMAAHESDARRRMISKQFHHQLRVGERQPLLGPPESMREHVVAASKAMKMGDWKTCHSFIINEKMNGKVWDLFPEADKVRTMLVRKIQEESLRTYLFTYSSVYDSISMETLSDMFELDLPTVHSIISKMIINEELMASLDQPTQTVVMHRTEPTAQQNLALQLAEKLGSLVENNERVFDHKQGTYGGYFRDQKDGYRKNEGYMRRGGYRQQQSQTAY

Where a chain is given by its changes, count along the chain named. Results are given in words; binding and its absence hold for the method and conditions named. For some assays here: In cells and extracts the contact can be indirect. Some entries that bind do so weakly or less than the wild type. For some assays here: Sequences can lack the tags named with a protein.

Assay [1] has as its target T1, Flag-labelled YTHDF2 (W278A) (UniProt Q9Y5A9).
T1 sequence: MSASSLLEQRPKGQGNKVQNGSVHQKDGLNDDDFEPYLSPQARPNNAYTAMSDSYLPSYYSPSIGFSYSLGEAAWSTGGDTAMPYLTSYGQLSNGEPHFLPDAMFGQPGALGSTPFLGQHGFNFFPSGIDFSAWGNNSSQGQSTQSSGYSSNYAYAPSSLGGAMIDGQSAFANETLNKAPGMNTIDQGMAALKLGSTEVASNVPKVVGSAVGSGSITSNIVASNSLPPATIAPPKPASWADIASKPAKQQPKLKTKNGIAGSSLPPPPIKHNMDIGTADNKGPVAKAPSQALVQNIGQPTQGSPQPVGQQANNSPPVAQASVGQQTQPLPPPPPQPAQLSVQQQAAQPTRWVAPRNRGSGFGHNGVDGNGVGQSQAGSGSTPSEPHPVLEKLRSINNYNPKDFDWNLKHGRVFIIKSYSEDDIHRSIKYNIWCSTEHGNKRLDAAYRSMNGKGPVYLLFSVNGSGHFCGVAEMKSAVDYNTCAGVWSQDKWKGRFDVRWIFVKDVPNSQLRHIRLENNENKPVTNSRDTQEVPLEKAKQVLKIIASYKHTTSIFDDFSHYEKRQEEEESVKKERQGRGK
In words: co-IP; exogenous co-IP; HEK-293T cells co-transfected with Flag-labelled YTHDF2 and HA-labelled eIF3b constructs for 48 h.

The target of assay [2] is T2, Flag-labelled YTHDF2 (UniProt Q9Y5A9).
T2 sequence: T1 sequence with A278W
The assay is described as above.

The target in assay [3] is T3, GST-labelled YTHDF2 (UniProt Q9Y5A9).
T3 sequence: T1 sequence with A278W
In words: pull-down; GST-pulldown: purified GST-YTHDF2 with purified His-labelled eIF3 subunit proteins; both purified.

The target of assay [4] is T4, endogenous YTHDF2 (human (endogenous in MHCC97H)) (UniProt Q9Y5A9).
T4 sequence: T1 sequence with A278W
The experiment in a line: co-IP; endogenous co-immunoprecipitation in MHCC97H cells.

As to “HA-labelled eIF3b (from UniProt P55884 1-814)”, the binding entry in assay [1] is listed as “no binding”; in assay [2] it was “binds”.

“His-labelled eIF3b (from UniProt P55884 1-814)”: the binding entry in assay [3] is “binds”.

As for “His-labelled eIF3c (from UniProt Q99613 1-913)”, the binding result in assay [3] was “binds”.

As for “endogenous eIF3b (from UniProt P55884 1-814)”, in assay [4], the binding entry was “binds”.
